SMILES strings stand for the structures. In all, about 310,000 compounds went through this assay and about 14,000 (4.5%) showed an effect of 50% or more. Effects have a minus sign here. The list shows a part of the results.
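Note: peak tail current of the secondary pulse compared with the same well before compound.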

The target of this test is human ether-à-go-go-related gene (hERG) potassium channel (human, UniProt Q12809). Put plainly: primary screen, population patch clamp on CHO cells stably expressing hERG.
Chain of human ether-à-go-go-related gene (hERG) potassium channel (Q12809 whole entry, looked up): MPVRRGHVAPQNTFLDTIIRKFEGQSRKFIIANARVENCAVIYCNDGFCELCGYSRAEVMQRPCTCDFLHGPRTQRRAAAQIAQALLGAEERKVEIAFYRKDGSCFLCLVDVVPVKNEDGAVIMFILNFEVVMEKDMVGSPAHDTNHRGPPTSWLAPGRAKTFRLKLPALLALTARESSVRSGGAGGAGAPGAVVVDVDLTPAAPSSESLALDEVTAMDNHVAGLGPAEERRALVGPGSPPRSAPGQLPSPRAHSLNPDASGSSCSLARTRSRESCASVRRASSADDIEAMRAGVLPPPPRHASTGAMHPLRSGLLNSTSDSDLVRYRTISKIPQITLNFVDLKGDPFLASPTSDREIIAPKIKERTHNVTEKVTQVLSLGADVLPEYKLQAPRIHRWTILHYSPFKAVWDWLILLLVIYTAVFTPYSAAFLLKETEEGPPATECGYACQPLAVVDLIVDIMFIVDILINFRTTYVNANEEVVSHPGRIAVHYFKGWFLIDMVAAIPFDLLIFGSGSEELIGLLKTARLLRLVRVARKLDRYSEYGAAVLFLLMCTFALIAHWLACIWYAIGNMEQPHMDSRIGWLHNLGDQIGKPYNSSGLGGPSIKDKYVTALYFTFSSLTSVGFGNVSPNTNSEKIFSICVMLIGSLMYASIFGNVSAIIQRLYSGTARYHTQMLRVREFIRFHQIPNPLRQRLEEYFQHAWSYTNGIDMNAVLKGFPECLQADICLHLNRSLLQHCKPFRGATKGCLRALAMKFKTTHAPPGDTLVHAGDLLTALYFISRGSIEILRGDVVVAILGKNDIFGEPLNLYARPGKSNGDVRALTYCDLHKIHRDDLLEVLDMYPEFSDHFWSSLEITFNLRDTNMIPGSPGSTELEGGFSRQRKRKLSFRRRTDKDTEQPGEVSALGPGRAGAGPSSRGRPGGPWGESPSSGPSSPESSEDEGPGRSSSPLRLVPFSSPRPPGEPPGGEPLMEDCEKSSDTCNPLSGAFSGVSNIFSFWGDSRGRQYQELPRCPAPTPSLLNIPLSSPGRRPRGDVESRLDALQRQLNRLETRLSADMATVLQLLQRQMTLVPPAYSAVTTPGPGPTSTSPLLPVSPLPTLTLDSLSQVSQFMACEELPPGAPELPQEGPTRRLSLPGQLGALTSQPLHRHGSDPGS
Take `O=C(COS(=O)c1ccccc1)Nc1cc(Cl)ccc1N1CCOCC1` (centres unmarked): the “hERG current change (%, negative = inhibition) at 10uM” value is -37.3%.
Then `Cc1ccc(C(=O)CN2C(=O)C(=O)N(Cc3ccccc3)C2=O)cc1`, with 10.2%; and `Cc1ccccc1Cn1cc(NC(=O)c2cc(-c3cccs3)on2)cn1`, with -11.9%.
The value for `COc1cc(OC)c(OC)cc1/C=C1\Oc2cc(OCC(=O)N3Cc4ccccc4C[C@H]3C(=O)O)ccc2C1=O` was 4.38%; that for `Nc1nnc(CC(=O)N/N=C\c2cc([N+](=O)[O-])ccc2O)s1` was 26.3%; that for `CCN(c1ccccc1)S(=O)(=O)c1ccc(Oc2ccc(C(C)=O)cc2OC)nc1` was -26.2%.
The value for `Cc1ccc2nc(SCC(=O)Nc3ccc4sc(C)nc4c3)c(C#N)cc2c1` was 8.11%; that for `CCCCN(CCCC)CCCNC(=O)C1CC(c2ccc(C(F)(F)F)cc2)=NO1` (centres unmarked) was -72.3%.
On to `O=C(CN1C(=O)NC2(CCCCC2)C1=O)N1CCN(S(=O)(=O)c2ccc(Cl)s2)CC1`, for which the “hERG current change (%, negative = inhibition) at 10uM” value was 4.79%.
Then `COc1cccc(Oc2ccc(S(=O)(=O)N3CCCC3)cc2[N+](=O)[O-])c1`, with -57.1%.
The value for `O=C(N1CCCCC1)N1CCN(S(=O)(=O)c2ccc(Cl)cc2)CC1` was -39.3%.
Turning to `CCOC(=O)C1=C(C)N=c2s/c(=C/c3cccc([N+](=O)[O-])c3O)c(=O)n2C1c1cc(OC)c(OC)c(OC)c1` (centres unmarked), the “hERG current change (%, negative = inhibition) at 10uM” value was -13.2%.
Then `Cc1nc(SCc2ccc([N+](=O)[O-])cc2)nc2ccccc12`, with 0.233%; and `CCCCN(C(=O)c1ccc(-c2ccc([N+](=O)[O-])cc2)o1)c1c(N)n(CC(C)C)c(=O)[nH]c1=O`, with -19.3%; and `CCOCC(=O)Nc1cc(OC)c(Cl)cc1OC`, with 8.17%.
The value for `Cc1cc(C)n(-c2ncnc3c2oc2ccccc23)n1` was -10%; that for `CC1CN(C(=O)CSc2nnc(NC(=O)NC(C)(C)C)s2)CC(C)O1` (centres unmarked) was 19%; that for `Cc1cccc[n+]1CC(=O)Nc1ccc([N+](=O)[O-])cc1Cl.[Cl-]` was 18.4%.
The value for `COCc1ccc(C(=O)N2CCCC(C(=O)c3ccc(Cl)cc3C)C2)o1` (centres unmarked) was -34.2%.
For the compound `COc1cc(CCC(=O)OCC(=O)NC(=O)c2ccc(Cl)cc2)cc(OC)c1OC`, the “hERG current change (%, negative = inhibition) at 10uM” value was determined as 13.3%.
Then `O=C(NCC1CCCO1)C1CCN(c2ccc(S(=O)(=O)N3CCCC3)cc2)CC1` (centres unmarked), with -4.69%.
Then `COc1ccc(C)cc1S(=O)(=O)N(C)CC(=O)NC1CCCC1`, with 3.63%; and `COCCN(CCOC)C(=S)Nc1cc(S(=O)(=O)N(C)C)ccc1C`, with 0.217%.
Then `O=[N+]([O-])c1nn(-c2ccccc2)[n+]([O-])c1N1CCN(c2ccccc2)CC1`, with -0.32%; and `Cc1ccc(S(=O)(=O)NC(=O)Nc2ccc(F)cc2)cc1`, with 2.85%.
As for `CCOc1ccc(C(=O)NCC(C)C)cc1`, the “hERG current change (%, negative = inhibition) at 10uM” value is -3.67%.
The value for `Cc1ccc(S(=O)(=O)N2CCN=C2SCc2c(F)cccc2Cl)cc1` was 10.4%; that for `O=C(CCCCl)Oc1ccc2cc(-c3ccc4ccccc4n3)c(=O)oc2c1` was 4.58%; that for `CC(C)(C)NC(=O)CN1CCCN(C(=O)c2cccc(S(=O)(=O)N3CCc4ccccc43)c2)CC1` was -7.51%.
As for `CCOC(=O)N1CCC(NC(=O)c2ccc3c(=O)n4c(nc3c2)CCCC4)CC1`, the “hERG current change (%, negative = inhibition) at 10uM” value turned out to be 12%.
The value for `CCCCC(=O)Nc1ccc2c(c1)nc1n2CCOC1` was 15.6%; that for `Cn1c(N)c(C(=O)CNC2CCCCC2)c(=O)n(C)c1=O` was 5.61%; that for `CCOC(=O)CC1=CSC2=NS(=O)(=O)CCN12` was 8.26%.
Then `COc1cc(NC(=O)Cn2c(=O)n(CC3CCCO3)c(=O)c3ccccc32)cc(OC)c1` (centres unmarked), with 3.1%.
Then `Cc1ccccc1-c1noc(-c2ccccc2C(=O)O)n1`, with -11.5%.
Regarding `Cn1c(=O)[nH]c(=O)c2[nH]c(NCCCN3CCOCC3)nc21`, the “hERG current change (%, negative = inhibition) at 10uM” value is 17.2%.
Consider `CCOC(=O)CNC(=O)Nc1cccc(Cl)c1C`, for which the “hERG current change (%, negative = inhibition) at 10uM” value was 16.9%.
The value for `COc1ccccc1OCC(=O)c1[nH]c(C)c(C(C)=O)c1C` was -2.63%; that for `CCC/C(=N\NC(=O)CCC(=O)NCc1ccccc1)c1ccccc1` was 17.9%.
Then `COc1ccc(-c2nc3c(c(=O)c4ccccc4n3C)c(=O)n2Cc2ccccc2)cc1`, with 9.65%; and `COc1ccc(Cc2nnc(SCC(=O)NC(C)c3ccccc3)o2)cc1` (centres unmarked), with -8.86%.
Then `CC(=O)c1c(C)[nH]c(C(=O)Nc2cc(S(=O)(=O)N(C)C)ccc2C)c1C`, with 15.5%.
For `O=C(CN(C(=O)c1csnn1)c1ccc2c(c1)OCCO2)NCc1ccc(F)cc1`, the “hERG current change (%, negative = inhibition) at 10uM” value is given as -3.9%.
Then `CC1=CC(=O)C=C(C)C1=NOC(=O)c1cccc([N+](=O)[O-])c1`, with 9.59%; and `CCc1nn(C(CC)C(=O)NCCc2ccc(OC)cc2OC)c(=O)c2cc3occc3n12` (centres unmarked), with -25.6%; and `S=c1[nH]nc2c3c4c(sc3ncn12)CCCC4`, with 18.4%.
The value for `CCOc1ccc(OCc2ccc(C(=O)N3CCc4ccccc4C3)o2)cc1` was -10.4%.
The value for `CCOC(=O)C1=C(C)NC(C)=C(C(=O)OCC)C1c1sccc1C` was 1.39%; that for `FC(F)C(F)(F)c1cc(-c2ccc(Cl)cc2)n[nH]1` was 26.5%; that for `O=C(CON=C1c2ccccc2-c2ccccc21)NC12CC3CC(CC(C3)C1)C2` was -7.23%.
Turning to `CC(C(=O)[O-])c1ccc(CC2CCCC2=O)cc1.[Na+]` (centres unmarked), the “hERG current change (%, negative = inhibition) at 10uM” value worked out at 10.6%.
Turning to `O=C(Nc1ccc2c(c1)OCCO2)C1CCCN(S(=O)(=O)Cc2ccccc2)C1` (centres unmarked), the “hERG current change (%, negative = inhibition) at 10uM” value is recorded as -11%.
Then `COc1ccc2[nH]c3c(c2c1)CCn1c-3nc2ccccc2c1=O`, with -4.14%.
The value for `COc1ccc(N(C(=O)c2cccnc2)S(=O)(=O)c2ccc3c4c(cccc24)C(=O)N3C)cc1` was 17.7%; that for `CCOC(=O)CN(C(=O)COc1ccc2c(C)cc(=O)oc2c1)c1ccc(OCC)cc1` was -2.79%; that for `COc1ccc(/C=C2\CCCc3c2nc2ccccc2c3C(=O)O)cc1OC` was -3.08%.
`Cc1ccc(NC(=O)C2(c3ccccc3)CCOCC2)c([N+](=O)[O-])c1`: the “hERG current change (%, negative = inhibition) at 10uM” value is -22.5%.
On to `COc1cc(C(=O)NCCc2ccc(F)cc2)ccc1OCC(=O)N1CCOCC1`, for which the “hERG current change (%, negative = inhibition) at 10uM” value was -6.63%.
As to `O=C(O)C1Cc2ccccc2CN1C(=O)CSc1nnc2ccccn12` (centres unmarked), the “hERG current change (%, negative = inhibition) at 10uM” value is recorded as 5.9%.
For `O=S(=O)(c1ccccc1)N1CC=C(c2ccccc2)CC1`, the “hERG current change (%, negative = inhibition) at 10uM” value came to 10.2%.
Then `Cn1c(SCC(=O)c2c(N)n(C)c(=O)n(C)c2=O)nnc1-c1ccccc1F`, with 23.7%.
The value for `CC(C)c1nnc(SCC(=O)NC(C)(C)C)n1C` was 10.9%; that for `CCCCC(C(=O)NCCC(C)C)N(CCCN1CCOCC1)C(=O)c1snc(C(N)=O)c1N` (centres unmarked) was -32.1%; that for `CCOc1ccccc1C(=O)Nc1cc(OC)ccc1OC` was -3.8%.
Then `CCOc1ccc(N2C(=O)c3ccc(C(=O)OCC(=O)N(CC)C4CCS(=O)(=O)C4)cc3C2=O)cc1` (centres unmarked), with -22.3%; and `Cc1nnc2n(c1=O)C(CS(=O)(=O)c1ccccc1)CS2` (centres unmarked), with -7.5%; and `Cc1ccc[n+](CC(=O)c2ccc(Cl)cc2)c1.[Cl-]`, with 8.07%.
Take `CCCC(=O)N1CCN(c2ccc([N+](=O)[O-])c(NC(C)c3ccccc3)c2)CC1` (centres unmarked): the “hERG current change (%, negative = inhibition) at 10uM” value was -8.07%.
The value for `O=C1c2ccccc2-c2c1cccc2C(=O)N1CCCCCC1` was 0.506%.
Then `CCc1ccc2[nH]c(=O)c(CN(CCCN3CCOCC3)C(=O)Nc3ccc(F)cc3)cc2c1`, with -68.1%.
The value for `Cc1ccc2scc(CN3CCCC3)c2c1.Cl` was -12.9%; that for `Cc1ccc(CSc2nc(N)cc(N)n2)cc1` was 17.8%.
On to `CC(C)Cn1c(-c2cccnc2)nc2c1c(=O)[nH]c(=O)n2CC(C)C`, for which the “hERG current change (%, negative = inhibition) at 10uM” value came to 0.503%.
Then `Cc1ccc2nc(C3CCN(CC(=O)N4CCCCCC4)CC3)[nH]c2c1`, with -22.2%.
The value for `Cc1ccccc1-c1nnc(SCC(=O)NCc2ccc3c(c2)OCO3)n1C` was -8.1%; that for `CC/C(=N/N=C(\CC)c1ccccc1)c1ccccc1` was 5.16%.
Then `Cc1nc(NC(=O)CSc2nnc(Cn3nnc4ccccc43)n2C)sc1C`, with 0.783%.
Regarding `CCOC(=O)CCNC(=O)Nc1cc2nc(C)n(Cc3cccc(Cl)c3)c2nc1C`, the “hERG current change (%, negative = inhibition) at 10uM” value was found to be 4.33%.
The value for `CC(C(=O)NC1CCCc2ccccc21)N1CCN(Cc2ccc3c(c2)OCO3)CC1` (centres unmarked) was -51.9%.
Then `CCOC(=O)Cc1csc(NC(=S)NC(=O)c2ccc(Cl)cc2)n1`, with 14.6%; and `O=C(CNC(=O)C1CCCCC1)OCC(=O)c1ccc(Cl)s1`, with 15.7%; and `Cc1ccc(-n2c(Cc3cccs3)nnc2SCC(=O)OC(C)C)cc1`, with -24.7%.
Then `O=C(CC1C(=O)NCCN1Cc1ccc(F)cc1)NCCCn1cccn1` (centres unmarked), with -31.9%; and `COc1ccc(C(=O)N/N=C/c2ccc(OC)c(COc3ccc(F)cc3)c2)cc1`, with -35.2%.
With `O=C(CCN1CCCCC1)NNC(=O)C12CC3CC(CC(C3)C1)C2`, the “hERG current change (%, negative = inhibition) at 10uM” value was 41.3%.
Then `CC1=C/C(=C(\c2cc(C)c(O)c(Br)c2)c2ccccc2S(=O)(=O)O)C=C(Br)C1=O`, with 26.7%.

For the origin of these results see paper PMC4336329 (PLoS ONE, 2015).
